In PubChem BioAssay AID1345082 (National Center for Advancing Translational Sciences (NCATS), 2018):
Screen size: about 94,000 compounds; about 4,000 (4.3%) were called active. This list was built around the results that the source calls inconclusive (neither active nor inactive); the mix of calls is not that of the screen. Calls come from the whole dose curve; as a rule, active = well fitted inhibition curve with a large enough effect; inconclusive = small, poorly fitted or top-dose-only effect; inactive = no such curve, though single readings can be large or run the other way. Where the call is inconclusive, the potency comes from a doubtful curve fit.

Test: Cytotoxic Profiling in NIH 3T3 Cell Line of Diverse Libraries Using Quantitative High-Throughput Screening; note: nearly all actives have a fitted effect of over 55% in size
Conditions: NIH 3T3 viability, CellTiter-Glo ATP luminescence, 48-72 h; series mostly up to 96.7 µM
How it was run: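 ATP-dependent luminescence (CellTiter-Glo) served as the viability signal for NIH 3T3 cells treated with compound for 48 or 72 hr at 37 °C.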
Potency is the fitted concentration of half-maximal effect; tags give direction and shape of the fitted curve.

Q: For COC1CCN(c2cc(-c3cccnc3)nc3c(C)noc23)CC1, which Potency is on record?
A: The Potency was inconclusive: 63.1 µM [inhibitor, partial curve, poor fit].

Q: Which Potency does the source give for O=C(NCc1ccc(F)cc1)c1nc(-c2cccc(C(F)(F)F)c2)c2ccccn12 here?
A: Its Potency is inconclusive: 35.5 µM [inhibitor, partial curve].

Q: For Cc1nc2cccnc2n1CC1CCCN(C(=O)Nc2ccc(C(F)(F)F)cc2)C1 (configuration not stated), which Potency is on record?
A: Its Potency is inconclusive: 39.8 µM [inhibitor, partial curve, poor fit].

Q: For O=C(c1cccc(Cl)c1)N1Cc2ccccc2CC2(CCCN2Cc2ccncc2)C1 (configuration not stated), which Potency is on record?
A: The Potency was inconclusive: 70.8 µM [inhibitor, single point].

Q: With NC(=O)c1ccc(NC(=O)c2cc3n(n2)CC(c2ccc(Br)cc2)OC3)cc1 (configuration not stated) as the molecule, how does the Potency read?
A: Its Potency is inconclusive: 39.8 µM [inhibitor, partial curve].

Q: Which Potency does the source give for Cc1nc(-c2ccccc2OC2CN(C(=O)c3ccnn3C)C2)no1 here?
A: The Potency was “inactive”.

Q: With Cc1nn(-c2ccccc2)c2c1C(C)N(CC1CN(C(=O)c3ccccc3Cl)C1)C2=O (configuration not stated) as the molecule, how does the Potency read?
A: Its Potency is inconclusive: 35.5 µM [inhibitor, partial curve].

Q: For CSc1ccc(-c2cccc(C(=O)NCCNC(=O)c3ccccc3Cl)c2)cc1, which Potency is on record?
A: Its Potency is inconclusive: 44.7 µM [inhibitor, partial curve, poor fit].

Q: Which Potency does the source give for COC1CCCN(c2cc(-c3cccc(C(F)(F)F)c3)nc3c(C)noc23)C1 (configuration not stated) here?
A: The Potency was inconclusive: 50.1 µM [inhibitor, partial curve, poor fit].

Q: Which Potency does the source give for COC1CN(c2ccc(C)cc2)C12CCN(C(=O)COc1ccccc1)CC2 (configuration not stated) here?
A: Its Potency is inconclusive: 70.8 µM [inhibitor, single point].

Q: For CC(C)OCCCNC(=O)C1CCCN(c2nc3ncccc3o2)C1 (configuration not stated), which Potency is on record?
A: The Potency was “inactive”.

Q: For COc1ccc(C(=O)N2CCC3(CC2)CC(=O)Nc2ccccc2O3)cc1, which Potency is on record?
A: Its Potency is “inactive”.

Q: For COCc1nc(C2CC(N)C2)cc(N2CCN(S(=O)(=O)N(C)C)CC2)n1 (configuration not stated), which Potency is on record?
A: Its Potency is “inactive”.

Q: For O=C1c2cnc(-c3cccc(O)c3)nc2OCCN1Cc1ccc(F)cc1F, which Potency is on record?
A: Its Potency is inconclusive: 31.6 µM [inhibitor, partial curve, poor fit].

Q: Which Potency does the source give for O=C(Cc1c(F)cccc1Cl)N1CCCN(c2cc(-c3ccccc3)[nH]n2)CC1 here?
A: The Potency was inconclusive: 50.1 µM [inhibitor, partial curve, poor fit].

Q: Which Potency does the source give for COc1ccc(NC(=O)c2nc(C(O)c3cccc(O)c3)oc2C)cn1 (configuration not stated) here?
A: The Potency was inconclusive: 79.4 µM [inhibitor, partial curve].

Q: For COC(=O)[C@H](Cc1ccc(OC)cc1)NC(=O)[C@H]1CN(C(=O)c2ccc(N(C)C)cc2)CCN1S(=O)(=O)c1ccccc1, which Potency is on record?
A: The Potency was inconclusive: 89.1 µM [inhibitor, single point].
